Test results as given in article PMC4336329 (PLoS ONE, 2015).
About 14,000 (4.5%) of roughly 310,000 compounds showed an effect of 50% or more. Effects have a minus sign here. The list shows a part of the results. Where a SMILES comes first, the peptide text is derived from it. The star is where a group is joined. Boc = CC(C)(C)OC(=O)*

target: human ether-à-go-go-related gene (hERG) potassium channel (human, UniProt Q12809); assay: primary screen, population patch clamp on CHO cells stably expressing hERG
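Note: peak tail current of the secondary pulse compared with the same well before compound.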

human ether-à-go-go-related gene (hERG) potassium channel, sequence (Q12809 whole entry, looked up): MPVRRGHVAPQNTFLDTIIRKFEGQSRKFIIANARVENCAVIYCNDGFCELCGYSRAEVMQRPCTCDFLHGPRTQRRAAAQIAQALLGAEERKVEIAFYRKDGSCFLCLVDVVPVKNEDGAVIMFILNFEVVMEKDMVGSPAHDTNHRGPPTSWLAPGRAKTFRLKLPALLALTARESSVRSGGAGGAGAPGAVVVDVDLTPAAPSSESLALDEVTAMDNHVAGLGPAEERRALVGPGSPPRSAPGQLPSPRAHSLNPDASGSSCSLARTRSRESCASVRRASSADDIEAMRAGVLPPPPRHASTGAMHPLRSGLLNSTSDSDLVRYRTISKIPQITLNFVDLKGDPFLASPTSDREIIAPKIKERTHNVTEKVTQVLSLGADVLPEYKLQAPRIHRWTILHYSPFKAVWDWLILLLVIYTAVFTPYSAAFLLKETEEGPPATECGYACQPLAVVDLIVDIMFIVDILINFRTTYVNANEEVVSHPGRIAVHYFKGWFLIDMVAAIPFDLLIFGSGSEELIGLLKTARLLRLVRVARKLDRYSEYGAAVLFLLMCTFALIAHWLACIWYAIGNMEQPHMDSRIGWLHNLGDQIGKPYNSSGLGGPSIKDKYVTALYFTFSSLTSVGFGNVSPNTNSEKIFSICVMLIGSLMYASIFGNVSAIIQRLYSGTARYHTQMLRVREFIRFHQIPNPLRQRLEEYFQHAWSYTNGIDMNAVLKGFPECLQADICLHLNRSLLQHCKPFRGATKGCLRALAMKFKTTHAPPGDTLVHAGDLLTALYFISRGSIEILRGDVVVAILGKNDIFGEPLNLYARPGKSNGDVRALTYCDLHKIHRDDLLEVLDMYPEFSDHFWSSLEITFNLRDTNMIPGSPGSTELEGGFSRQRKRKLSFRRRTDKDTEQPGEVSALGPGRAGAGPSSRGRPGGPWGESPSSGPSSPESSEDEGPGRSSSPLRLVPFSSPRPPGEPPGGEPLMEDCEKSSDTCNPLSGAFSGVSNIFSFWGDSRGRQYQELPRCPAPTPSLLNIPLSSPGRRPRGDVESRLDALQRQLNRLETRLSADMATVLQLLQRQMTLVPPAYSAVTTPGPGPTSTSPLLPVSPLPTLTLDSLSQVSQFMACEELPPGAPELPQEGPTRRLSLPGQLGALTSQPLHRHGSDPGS

Compound	hERG current change (%, negative = inhibition) at 10uM [%]
O=S(=O)(Nc1ccc(N2CCOCC2)nn1)c1ccccc1	12.9
COCCNC(=O)COC(=O)c1nsc(Cl)c1Cl	-5.23
O=C(O)c1ccccc1NC(=O)C1CCCO1 (stereo not shown)	13.5
Cc1cccc(OCC(=O)Nc2ncn[nH]2)c1C	0.301
CCC(CC)C(=O)NCCc1ccc(OC)c(OC)c1	11
CCOc1ccccc1NC(=O)CCCNC(=O)Cn1cnc2sc(C)c(C)c2c1=O	8.27
COc1ccc(CCN2C(=O)C3CC(C)=C(C)CC3C2=O)cc1OC (stereo not shown)	-8.87
CN(CC(=O)Nc1cccc(F)c1)C(=O)Cn1c(=O)oc2ccccc21	2.01
CCOC(=O)c1[nH]c(C)c(CC(C)C)c1C	13
CCCCNC(=O)N1CCN(S(C)(=O)=O)CC1	13.4
COc1ccc(CCC(C)NCc2ccc(Cl)c(Cl)c2)cc1 (stereo not shown)	-53.7
Cc1nn(Cc2ccc(F)cc2)c(C)c1NC(=O)c1cnn2c1NC(c1cccs1)CC2C(F)(F)F (stereo not shown)	-7.32
COc1ccc([C@@]2(C(C)C)ON(c3ccccc3C(F)(F)F)C2=O)cc1	17.4
Cc1ccc(OCC(=O)N/N=C2/SCC(=O)N2Cc2ccco2)cc1	-28
CC1CCN(C(=O)C2COc3ccccc3O2)CC1 (stereo not shown)	-2.23
COc1ccc(N(CC(=O)Nc2ccc(F)c(F)c2)S(=O)(=O)c2c(C)n[nH]c2C)cc1	18.5
COc1ccccc1N1CCN(c2ccc([N+](=O)[O-])cn2)CC1	0.823
CC(=O)Nc1ccc(SCC(=O)c2c(N)n(Cc3ccccc3)c(=O)n(C)c2=O)cc1	14
COc1ccc(-c2nc3ccccc3s2)cc1O	-0.405
Cc1cc(=O)[nH]c(SCC(=O)Nc2ccccc2[N+](=O)[O-])n1	4.57
O=C(NCc1cccs1)c1cc(-c2ccccc2)on1	-1.22
c1coc(CNc2nc3nonc3nc2NCc2ccco2)c1	-25.4
Cl.c1ccc2c(NCC3CCCO3)nc(N3CCOCC3)nc2c1 (stereo not shown)	-49.5

Compound	hERG current change (%, negative = inhibition) at 10uM [%]
CC(=O)[C@@]1(O)CCC2C3C=CC4=CC(=O)CC[C@]4(C)C3CC[C@@]21C (stereo partly shown)	5.47
COc1ccc(N2CCN(CCNC(=O)Nc3cc(Cl)ccc3OC)CC2)cc1	3.23
CSCCC(NC(=O)OC(C)(C)C)C(=O)NC(C(=O)NC(CC(C)C)C(N)=O)C(C)C (stereo not drawn) (Boc-Met-Val-Leu-NH2; configuration not given here)	6.66
COc1cc(NC(=O)CSc2nc3ccccc3cc2Cc2ccccc2)cc(OC)c1	-5.88
O=C(CCN1C(=O)/C(=C\c2cccs2)SC1=S)NC1=NCCS1	-1.18
CCOc1ccc(/C=N/NC(=O)c2[nH]c3ccc(C)cc3c2C)cc1	12.4
CC(C)OC(=O)C(=O)NNc1ccccc1	11.3
COC(=O)c1ccccc1NC(=O)Nc1cnccn1	26.5
CC(C)(C)OC(=O)N[C@@H](/C=C/c1ccccc1)C(=O)OC(C)(C)C	-11.2
NC(=O)CCCC1=NS(=O)(=O)c2ccccc2N1	11.5
O=C(COc1ccc(Br)cc1)Nc1ccc([N+](=O)[O-])cn1	-19.7
Cn1c2ccccc2c2nnc(SCc3ccc4nonc4c3)nc21	7.92
CCCc1cc(=O)oc2c3c(cc(OCC(=O)NCc4ccncc4)c12)OC(C)(C)CC3	-65
Cc1cc(C(=O)N/N=C(\CCC(=O)O)c2cccs2)c2ccccc2n1	17.4
CCOc1ccc(NC(=O)CCN2C(=S)NC(C)(C)CC2C)cc1 (stereo not shown)	22.5
CCN(CC)C(=O)c1cn(CCC#N)nc1-c1ccc2ccccc2c1	8.84
CCOC(=O)C(Oc1ccc(=O)[nH]n1)C(C)=O (stereo not shown)	-6.6
O=C(OCCCc1cc2ccccc2c(=O)o1)c1ccco1	-16.2
CCN(CC)S(=O)(=O)c1ccc2c(c1)nc(CCC(=O)OCc1c(C)noc1C)n2C	-12.4
Cc1cccc(N(C)C(=O)c2cc(S(=O)(=O)N3CCCCC3)c[nH]2)c1	6.97
Cn1nccc1NC(=O)Nc1ccc(Cl)cc1	20.6
O=C(c1cccs1)N1CCOCC1	6.52
Cc1onc(-c2c(Cl)cccc2Cl)c1C(=O)c1c[nH]c(C(=O)NCCCN2CCOCC2)c1	-7.65

Compound	hERG current change (%, negative = inhibition) at 10uM [%]
COc1cccc(OC)c1NC(=O)CN1CCN(C)CC1.O=C(O)C(=O)O	16
S=c1[nH]nc(-c2ccccc2)n1C1C=CCCC1 (stereo not shown)	6.32
Cc1cc(C)n(-c2nnc(NC(C)(C)C)nn2)n1	10.7
CCCCN(C(=O)c1cc(=O)[nH]c2ccccc12)c1c(N)n(CCCC)c(=O)[nH]c1=O	18.5
COCCN(C(=O)c1cc2c(s1)CCCCC2)c1c(N)n(CC(C)C)c(=O)[nH]c1=O	3.04
CCN(C(=O)COC(=O)c1ccccc1NCCO)C1CCS(=O)(=O)C1 (stereo not shown)	-5.97
Fc1ccc(-n2c(CN3CCCCC3)n[nH]c2=S)cc1	26.6
CCC(C(=O)NCc1ccco1)n1nc(C)n2c(cc3occc32)c1=O (stereo not shown)	12
O=C(CNS(=O)(=O)c1cccc(Br)c1)NCCCc1ccccc1	1.04
Cc1ccc(NS(=O)(=O)c2ccc(CCC(=O)N3CCCC3)cc2)cc1	11
CCc1c(C)nc(N2CCN(c3cccc(OC)c3)CC2)[nH]c1=O	9.29
CCNS(=O)(=O)c1ccc(CCC(=O)NCCc2ccc(OC)cc2)cc1	-5.89
Cc1ccc(C(=O)Nc2ccc([N+](=O)[O-])cn2)o1	-20.4
CNc1snc(C)c1C(=O)OC(C)C(=O)Nc1cccc(OC)c1 (stereo not shown)	-6.5
CCOC(=O)C1(c2ccccc2)NC(c2ccccc2C)C2C(=O)N(c3ccc4c(c3)OCO4)C(=O)C21 (stereo not shown)	-26.6
CCn1c(=O)cc(OCC(=O)NCCCN2CCN(c3cccc(Cl)c3)CC2)c2ccccc21	-61.1
Cc1cccc(NC(=O)c2ccc(N3C(=O)C4CCCCC4C3=O)cc2)c1C (stereo not shown)	1.8
Cc1cccc(N(C)c2cc(C)nc3nc(C)nn23)c1	-15.8
COc1ccc(OC)c(Nc2c3c(nc4ccccc24)CCC3)c1	-67.8
O=C(NCCc1ccc(Cl)cc1)c1ccc(CNc2c(N3CCOCC3)c(=O)c2=O)cc1	25.7
CN(C)S(=O)(=O)c1cccc(C(=O)NCc2ccco2)c1	10.7
C=CCOC(=O)C(C#N)c1nc2ccccc2nc1N1CCN(c2ccccc2OC)CC1 (stereo not shown)	6.56
O=C(CCSc1ccccc1)Nc1ncccn1	14.9

Compound	hERG current change (%, negative = inhibition) at 10uM [%]
COc1ccc(C)cc1NC(=O)CCNC(=O)Cn1cnc2ccccc2c1=O	10.2
COc1ccc(-n2nc3c(c2NC(=O)C(C)Cl)CSC3)cc1 (stereo not shown)	13.2
O=C(Nc1ccc(N2CCCC2)cc1)c1ccc(Br)cc1	21.5
CCOC(=O)c1cc2c(=O)n3cccc(C)c3nc2n(CC(C)C)c1=NC(=O)c1ccco1	-69.7
Cc1ccc(CC(=O)NCCCc2ccccc2)cc1	-6.1
CC1(C)CC2(CC(C)(C(=O)CSc3nc4ccccc4s3)OC2=O)C(=O)O1 (stereo not shown)	1.98
CCc1ccc(Nc2ccc(C(N)=O)cc2[N+](=O)[O-])cc1	8.56
Cc1nn(C)c(C)c1C1C(C#N)=C(N)OC2=C1C(=O)CCC2 (stereo not shown)	-12
COc1ccc2nc(SCC(=O)NCC3CCCO3)c(C#N)cc2c1 (stereo not shown)	26.8
CN1c2ccccc2Oc2ccccc21.[O-][Cl+3]([O-])([O-])[O-]	1.92
O=C(O)c1ccccc1S(=O)(=O)c1ccccc1CO	10.3
CCCNC(=O)CN1C(=O)NC(Cc2c[nH]c3ccccc23)C1=O (stereo not shown)	12.9
CCOc1cc(C=O)cc(Cl)c1OCC(N)=O	13.9
COCc1cc(C)n(CC(=O)Nc2cccc(C)c2)c(=O)c1C#N	-1.59
O=c1ccc2c([nH]1)CCCCCCCCCC2	5.75
COc1ccc(C(CNC(=O)c2oc3cc(Br)ccc3c2C)N2CCCCC2)cc1 (stereo not shown)	-9.05
O=C(COC(=O)c1ccc(O)cc1)Nc1ccc(N2CCCCC2)cc1	-4
CNC(=O)c1c(NC(=O)c2cccc(N3C(=O)CCC3=O)c2)sc2c1CCCC2	5.72
COc1ccc(CC(=O)Nc2cc(S(=O)(=O)N3CCOCC3)ccc2N2CCOCC2)cc1	0.344
O=C(NCc1ccccc1)N(Cc1nc2ccccc2c(=O)[nH]1)C1CCCC1	-2.34
C=CCC(NCc1ccco1)c1ccc(OC)c(OC)c1.Cl (stereo not shown)	11.8
O=C1NC(c2cc3ccccc3nc2Cl)Nc2ccccc21 (stereo not shown)	-5.63
